Measurements from the supplement of paper PMC11417369.
± gives the standard deviation of the averaged measurements. The list shows a part of the results.

Each sequence was assayed on PfAP2-EXP AP2 domain (GST-tagged) (assay: gcPBM binding intensity (ln(normalized median fluorescence intensity)); higher = stronger DNA binding).
Method in brief: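 Each value is the highest Masliner-normalised natural-log median intensity across replicate spots of either orientation of a probe. The probes were primer-extended double-stranded 36-bp intergenic genomic sequences on an Agilent 4 × 180k array, alongside negative controls, exposed for 1 h to GST-tagged P. falciparum DNA-binding domains expressed in E. coli. Bound protein was picked up with Alexa488 anti-GST antibody and scanned at 488 nm.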

Row | Sequence | gcPBM binding intensity (ln)
1 | ATATTAAACAGACACACACACATATATTTATTTATA [CACACA_site7564] | 8.44 ± 0.38
2 | TATAGCTATGTATTCACACATAATATAAACTTTAAT [CACACA_site5889] | 8.36 ± 0.59
3 | TGTATTATATAAAATTGTACATGCGAATTGTATAAC [XGTACX_site902] | 9.26 ± 0.46
4 | AAAATGAACTCACGAGCACACACACCCATATATATA [CACACA_site8247] | 8.76 ± 0.33
5 | ATTGTTTTATATAGAACACACATAAAAATATATATG [CACACA_site1193] | 8.44 ± 0.38
6 | TAATTTTTTTTAATAACACACATATATATATATATA [CACACA_site813] | 10.47 ± 0.042
7 | AAAGGATGTAATATAAACATATATATGTATATATAT [TGCATGCA_negctrl_site347] | 8.55 ± 0.27
8 | ATAAAATGAAATATATATGTGTATGCTTAACTTGTT [CACACA_negctrl_site431] | 8.46 ± 0.38
9 | TAATATTCCTTTTTAACACACATATGAACAAATAAA [CACACA_site153] | 8.57 ± 0.49
10 | TTAAATAATATTAGCCGTACAATTTAAAGATAATAA [XGTACX_site8503] | 8.52 ± 0.33
11 | AATTATAGCTGTATCTGTACGCATTTATTTATAGAC [XGTACX_site5959] | 8.65 ± 0.21
12 | GAAAGGGCAGGAACTATTAATACACTGATCGATAAG [CACACA_negctrl_site1458] | 8.63 ± 0.48
13 | AAAAAAAAGTATGATTCTAAATTTATGTATATATAA [GTGCAC_negctrl_site669] | 8.22 ± 0.45
14 | TTTAATACTTTATATGCATGCAGAGAAAAATGCTTG [TGCATGCA_site286] | 9.835 ± 0.092
15 | ATGAATATAATGAAGTGTACATAAAAATAATAAATA [XGTACX_site2481] | 8.97 ± 0.42
16 | TTTGAAATATATTTAGTGCATATATATTGATTATAA [GTGCAC_site9604] | 8.43 ± 0.099
17 | ATACATATAGGATGCACACATAATTCAAATACAATA [CACACA_site651] | 8.62 ± 0.31
18 | ATCTAGTACATACATACACACAACAATGTTATGAGA [CACACA_site3989] | 8.52 ± 0.36
19 | CAATTTTGCCCTTCCTGTACATATATTGAAAAATAT [XGTACX_site6388] | 8.6 ± 0.25
20 | TAAATATTTATAAACACACAAATATTTATATTTATA [CACACA_site6166] | 8.08 ± 0.3
21 | AGGGACATATATATCACACACAAAAATTAGTCCCTT [CACACA_site2778] | 8.68 ± 0.49
22 | TTTATTTATTAATACACACACACACGCCCACAAAAT [CACACA_site6253] | 9.21 ± 0.42

Row | Sequence | gcPBM binding intensity (ln)
23 | AAATAGAGAAATACAAGTACATATCAAACCAATCTA [XGTACX_site2756] | 8.52 ± 0.42
24 | CTTATACATAAATTTTGTACACACAAAAAAAAAAAA [XGTACX_site2665] | 8.5 ± 0.55
25 | TAAAAATATAGGTATACACACATATAAATATAAATA [CACACA_site7785] | 8.54 ± 0.4
26 | ATAAATATAAATATATGTACATATATATATATATAT [XGTACX_site7433] | 10.2 ± 0.15
27 | GATTTTAAAATAATTACACACTTGATTATGTCCAAA [CACACA_site3491] | 8.46 ± 0.4
28 | AAGACACAAAAACACACACACATACATACATACATA [CACACA_site454] | 8.77 ± 0.39
29 | TATGTTGATGATGATAGTACATATGAGTTCAAAAAA [XGTACX_site7712] | 8.57 ± 0.34
30 | TGTTTTGTTGTGTATTGTACTAATATAAATATATAA [XGTACX_site1852] | 8.78 ± 0.46
31 | TTTTATGATTGACACACACACAAAAAAAAAAAAAAA [CACACA_site7860] | 8.2 ± 0.43
32 | TAAAAAAACGCACTCGTACACACATATTTTCTTTCT [CACACA_site3090] | 8.665 ± 0.049
33 | TATATTTGGAAAACATGTACATATAACAATATGTAA [XGTACX_site324] | 8.61 ± 0.38
34 | AATAAAAAAGGAAACAAATTAATATATATATATATA [CACACA_negctrl_site467] | 10 ± 0.38
35 | CGTACATAATTTTAATCACACACAAACAAACACATA [CACACA_site7947] | 8.88 ± 0.56
36 | AAAAAAAGAAATAATAAAAAATATATATATATATAT [GTGCAC_negctrl_site702] | 10.1 ± 0.44
37 | ATGTTGTCAAAAAAATGTACTTACATAATATTTTCC [XGTACX_site1732] | 8.37 ± 0.29
38 | TATAAATACTTATATGTACACACATATAGATATATA [CACACA_site8819] | 8.27 ± 0.18
39 | CGCATACACCAACACACACACACATATATATATATA [CACACA_site635] | 10.2 ± 0.21
40 | ATCTAATATATATTCTGTACGTAATTAAAACCACAA [XGTACX_site3152] | 8.74 ± 0.3
41 | TAGATCTTATTTACAAGTACATATATACGATTCATT [XGTACX_site7578] | 8.52 ± 0.35
42 | AGAAGTCTGTAATGATGTACTGGAAAAATATAAATA [XGTACX_site8148] | 8.47 ± 0.36
43 | TTTTTTTTTTAAAAAACACACACCTAAACAAGATAT [CACACA_site875] | 8.84 ± 0.37
44 | ATATATATATATATTTGTACATATATATAATTTTTC [XGTACX_site7460] | 9.98 ± 0.18

Row | Sequence | gcPBM binding intensity (ln)
45 | AAAATAAAAAAAAAAGGTACACAAAAAGATGGACTG [XGTACX_site2650] | 8.71 ± 0.52
46 | TATAATTGTCTTCACACACACATATATATATATATA [CACACA_site2743] | 10.2 ± 0.29
47 | AAAAAACGACCTTACGCACACATTATTCTAGTCTAT [CACACA_site2349] | 8.74 ± 0.3
48 | TCAAATTATATGAGTGGTACACATGTAATATTTTTA [XGTACX_site6518] | 8.29 ± 0.28
49 | ATATATATATATATATGTACTTATTAAGATTAAAAA [XGTACX_site61] | 10.2 ± 0.2
50 | ATATTTTGTATAATCACACACACTATTATTAAATAG [CACACA_site2612] | 8.44 ± 0.41
51 | TTACATTTTTTATGTTTTTTTATATTGCAAAAAAAT [CACACA_negctrl_site1050] | 8.52 ± 0.33
52 | AAAAAAATATATATTACACACATATATACATATATA [CACACA_site3125] | 8.22 ± 0.34
53 | TTAAATATAAAAAGTAGTACATTTATATTTACCATA [XGTACX_site2962] | 8.34 ± 0.28
54 | TATAAATATAAATACACACACACATCAATACAGATA [CACACA_site5850] | 8.64 ± 0.61
55 | ATTAATAATATTCCTTGTACATGATTTTTCTAAATA [XGTACX_site7099] | 8.67 ± 0.41
56 | AAAAAAAAAAAAAAAACACACATACACCCCCACCCA [CACACA_site9117] | 10.4 ± 0.3
57 | TCTTTTGAACAAATTTGTACGTATATAAAAATATTT [XGTACX_site6547] | 8.69 ± 0.31
58 | AATGAATTAATAGCTACACACGGTAACATAATAACT [CACACA_site851] | 8.69 ± 0.37
59 | TATAATAATGCCTTTACATGCAATAATAAAGAAATA [TGCATGCA_site631] | 8.7 ± 0.23
60 | TGTGTTAATAGAAAAAGTACATATACATATATATAT [XGTACX_site4951] | 9.65 ± 0.18
61 | TGCACAGACGGACACACACACAACTAAAAAATAATG [CACACA_site5424] | 8.77 ± 0.45
62 | TACATAAAAATATCACGTACATATAATCATATACTA [XGTACX_site3505] | 8.31 ± 0.4
63 | ATATTTCATCTAGCTACACACATATAACAAATTACT [CACACA_site7843] | 8.8 ± 0.48
64 | TTCTTTTTCCAATTTGCACACCACAAAATTATATAT [CACACA_site2909] | 9.38 ± 0.39
65 | ACCTTTGATATATACACACACATAAAAAAAATATAT [CACACA_site6952] | 9.22 ± 0.63
66 | CTTGTATTTAAACACACACACACTTTCTTTTTTTAA [CACACA_site5133] | 8.64 ± 0.49

Row | Sequence | gcPBM binding intensity (ln)
67 | AACGTTCATATTTCCACACACAAAAAATAAATATAA [CACACA_site3344] | 8.65 ± 0.57
68 | AATATTATAATATAAACACACAAAATTCAATTATAT [CACACA_site3789] | 8.55 ± 0.44
69 | TTAATATTAATATATTGTACATATATGCACATATTT [XGTACX_site6569] | 8.46 ± 0.28
70 | AAAAATAAAGGGCGAAAAAAAAAAAAAAAAAAAAAA [GTGCAC_negctrl_site671] | 8.13 ± 0.65
71 | ATATTTTATTATTGTTGTACTTTTTTTTGATTGTTT [XGTACX_site4090] | 8.81 ± 0.42
72 | TTGACACGTATATGCACACACCCGTAAGTGTCCATT [CACACA_site2764] | 8.91 ± 0.45
73 | TCACACATATATTCATGTACATATTAATATTTCCAT [XGTACX_site5387] | 8.85 ± 0.44
74 | AGTTATAAACATATGTGTACTTATAAAAACATATAG [XGTACX_site3268] | 8.58 ± 0.27
75 | TTTAATATTTTTCAATGTAGAAAGTTTGTCTGTTAT [CACACA_negctrl_site973] | 8.14 ± 0.49
76 | TTTTTTATGAACACGTCACACATCATTAAAATGTTT [CACACA_site5934] | 8.35 ± 0.26
77 | TTTTGTAAAAAAAAAAAAAAAGGAAAATTAAAATAA [CACACA_negctrl_site803] | 8.36 ± 0.43
78 | TTGATGATATAAAAAAGTACTTATATTATATTATAT [XGTACX_site6492] | 8.35 ± 0.24
79 | TTTCCTATTTAATATAGTACATAAGAAATAATTTTA [XGTACX_site5952] | 8.12 ± 0.15
80 | TTGTTTTTAGTTTATACACACCATATTAATATAATG [CACACA_site7452] | 8.74 ± 0.39
81 | ATTTGGCATGGACACACACACACACCGACAGACATA [CACACA_site4491] | 8.71 ± 0.38
82 | TTATATTATGGACACACACACAAAAAAAAAAAAAAA [CACACA_site7744] | 8.42 ± 0.37
83 | ATATATATATAAAGTTGTACATTTTTTATTTTTTCA [XGTACX_site7847] | 9.79 ± 0.13
84 | AAATTAATTAAATATACACACATATATAAATATATA [CACACA_site391] | 8.37 ± 0.17
85 | CAATTTTAAGTAATCAATTTTTTTAAAAAACACAAA [CACACA_negctrl_site961] | 8.23 ± 0.44
86 | AAAATATATTATATATGTACATATTACGTTTTAATT [XGTACX_site2518] | 8.62 ± 0.34
87 | TTAAAACCAAAACACAGTACATATATATATATATAT [XGTACX_site5668] | 10.3 ± 0.23
88 | TTTGTTAATTATAAATGTACATATTATATATATATA [XGTACX_site8870] | 9.71 ± 0.12
